Data as given in ChEMBL document CHEMBL4888484, “Replenishing the malaria drug discovery pipeline: Screening and hit evaluation of the MMV Hit Generation Library 1 (HGL1) against asexual blood stage Plasmodium falciparum ,using a nano luciferase reporter read-out” (2022).
Among all 150,000 compounds or so, about 540 (0.36%) showed an effect of 50% or more. The list shows a part of the results.

Test system: Plasmodium falciparum
Experiment: Primary screen in NF54 nanoGlo assay, in single point, at 2uM, 72h; a lower Z score goes with more inhibition
Assay type: functional, Erythrocyte
Conditions: timepoint 72 hour

| Compound | % Inhibition | Z score |
| --- | --- | --- |
| N#CC1(NC(=O)C2CC2c2cc(F)ccc2F)CCC1 (configuration not stated) | 0% | -0.05 |
| c1sc(C2CCOCC2)nc1C1CCC1 | 18% | -2.35 |
| Cc1ncccc1NC(=O)C(=O)NCC1CCC(C)(C)CC1 | -9% | 1.51 |
| Cc1nnc([C@@H]2COCCN2Cc2oc(C(C)C)nc2C)o1 | -9% | 1.22 |
| O=C1N(CC2CC2)CCC[C@@]12CCN(S(=O)(=O)N1CCOCC1)C2 | -12% | 1.1 |
| O=C1CCNC(=O)N1Cc1nc2ccccc2s1 | -7% | 0.96 |
| O=C(CN1CCN(S(=O)(=O)c2ccc(F)cc2)CC1)Nc1ccon1 | -11% | 1.35 |
| Cc1nc(C(=O)NC2CC(OC(C)(C)C)C2n2cccn2)c(C)o1 (configuration not stated) | -7% | 1.46 |
| CCc1csc(CNC(=O)c2ccc(N[C@@H]3C[C@@H](CO)N(C)C3)nc2)n1 | -3% | 0.5 |
| COc1ccc(CNS(C)(=O)=O)cc1N[C@@H](C)C1CC(F)(F)C1 | 2% | -0.34 |
| Brc1cncc(O[C@H]2CCN(CCc3ccncc3)C2)c1 | 0% | -0.05 |
| O=S(=O)(c1cccs1)N1CC(n2nccn2)C1 | -8% | 0.93 |
| CN(C)C(=O)NCc1cc2n(n1)CCCN(Cc1cc3ccccc3o1)C2 | -14% | 1.73 |
| CCC1(CNc2nc(N(C)C)ns2)CCC1 | -14% | 2.75 |
| CCn1cc(Br)cc1C(=O)N1C(C)COCC1C (configuration not stated) | -10% | 1.06 |
| COc1ccc2ccn([C@@H](C)C(=O)N3CCN(C(C)=O)CC3)c(=O)c2c1 | 2% | -0.36 |
| CC1(C)CN(C(=O)Cn2nnc3c2CCCC3)[C@H]2CCC[C@H]21 | 3% | -0.52 |
| Cc1c[nH]c([C@H](C)NC(=O)CCn2ccnc2)n1 | 5% | -0.49 |
| CCC1Oc2cc(S(=O)(=O)N3CCCC(C(=O)N4CCCc5ccccc54)C3)c(C)cc2NC1=O (configuration not stated) | -6% | 0.65 |

| Compound | % Inhibition | Z score |
| --- | --- | --- |
| Cc1n[nH]cc1CNC(=O)NCC(C)(C)C(C)C | -12% | 1.61 |
| O=C(Cn1cc(C(=O)N2CC3CCCC3C2)cn1)NC1CCCCC1 (configuration not stated) | -9% | 1.26 |
| CCOc1c(Br)cc(Cl)cc1NCC(=O)NC(=O)NCC(C)C | -7% | 1.36 |
| CC1=C(C(=O)N2CC[C@@H]3OCC(=O)N[C@H]3C2)CCC1 | -5% | 0.4 |
| Cc1ccccc1-c1ncc(CN2CCOC[C@@H]2CO)cn1 | 2% | -0.22 |
| Cc1nnc(CC(=O)N(Cc2cc(F)ccc2F)c2ccccc2)o1 | -9% | 1.21 |
| COc1ccc(N2CCC(C(=O)N3CCN(c4cccc(Cl)c4)CC3)CC2)nn1 | 5% | -0.68 |
| CN1CCCN(S(=O)(=O)c2cccs2)c2ccccc21 | 6% | -1.16 |
| Cc1ccc(CNC(=O)N(C)CCc2cccs2)cn1 | 5% | -0.71 |
| C[C@H]1C(=O)NCCN1C(=O)C1CC=CC1 | -10% | 1.62 |
| COCCN1CCN(c2nnc(COc3ccc(C)c(C)c3)n2CC2CCCO2)CC1C (configuration not stated) | -4% | 0.52 |
| CN(CCc1cnn(C)c1)CCN1C[C@@H]2CC[C@H]1C2 | -4% | 0.64 |
| COc1nn(C)cc1NC(=O)NC1(C(C)(C)c2ccccc2)CC1 | -7% | 1.18 |
| O=C(O)C(c1ccccc1F)N1CCC(c2cccnc2)C1 (configuration not stated) | -10% | 2.03 |
| O=C(NCC1CCC2(CC1)OCCO2)c1ccccn1 | -2% | 0.28 |
| Cc1nc(-c2ccc(NC(=O)CNC(=O)C(C)(C)C)cc2)co1 | 0% | -0.07 |
| O=C(NC(Cc1ccccn1)[C@H]1C[C@H](O)C1)c1ccc(CO)o1 (some centres not stated) | -6% | 1 |
| COc1ccccc1N1CCN(C(=O)C[C@H]2CCCCN(Cc3ccccc3)C2=O)CC1 | 5% | -0.82 |
| COCc1nc2n(n1)C[C@@H](Nc1ccnc(C)c1)CC2 | -1% | 0.18 |

| Compound | % Inhibition | Z score |
| --- | --- | --- |
| CC1CC(C(=O)NCCCc2ncn(C)n2)CC(C)(C)C1 (configuration not stated) | 7% | -0.86 |
| N#Cc1cccc(C(=O)N2CCC(n3nccn3)CC2)c1 | 7% | -1.18 |
| CCc1nc(C#N)cc(NC2CCN(S(N)(=O)=O)CC2)n1 | 0% | 0.05 |
| CCNC(=O)N1CC(C(=O)NCc2cccnc2)CCC1c1ccc(F)c(C)c1 (configuration not stated) | -19% | 1.84 |
| COc1cc(OC)c(NC(=O)[C@@H]2CCn3c(C(=O)c4ccccc4)ccc32)cc1Cl | -1% | 0.19 |
| OCc1ccccc1-c1nccc2ccccc12 | -6% | 1.09 |
| O=C(O)C1CCN(C(=O)C2CC2c2ccc3ccccc3c2)CC1 (configuration not stated) | -15% | 2.37 |
| O=C(NCCc1ccc(O)cc1)Nc1cc(N2CCOCC2)ccc1Cl | -6% | 0.96 |
| CC(C)Cn1cc(CN[C@H](c2cccs2)C2(CO)CCC2)cn1 | -10% | 1.18 |
| CCN(CC(=O)NC(C)(C)C)C(=O)COc1ccc(Br)cc1F | -5% | 0.83 |
| Cc1nc(N(C)C2CCCCC2)ncc1[C@H](C)NS(=O)(=O)N(C)C | -8% | 1.18 |
| CC1CN(Cc2nc(N(C)C)no2)CC2(CCOC2)O1 (configuration not stated) | 7% | -0.87 |
| CCc1nsc(N2CCOC[C@@H]2Cc2ccccc2)n1 | 3% | -0.47 |
| CC1CCCN(C(=O)c2ccc3c(c2)CCC(=O)N3)C1CN (configuration not stated) | -13% | 1.81 |
| COc1cccc(NC(=O)CC(F)(F)F)c1 | 2% | -0.26 |
| C[C@@H](NC(=O)CN1C[C@@H]2CCC[C@]2(C(N)=O)C1)c1ccccc1 | -14% | 2.28 |
| Cc1cccc(C)c1NC(=O)N1C[C@@H](C)N(C)[C@@H](C)C1 | 14% | -1.88 |
| CC1CCN(c2nc(CS(=O)(=O)c3ccccc3)cs2)CC1 | -3% | 0.44 |
